According to paper PMC8096781:
No constants are given. Whether binding was seen depends on the method and setting. In cells and extracts the contact can be indirect. Some entries that bind do so weakly or less than the wild type. Sequences can lack the tags named with a protein.

Protein sequences, listed by entry. Tags and fused reporters are not part of them. Residues count along the entry.
UniProt P19838, residues 1-433: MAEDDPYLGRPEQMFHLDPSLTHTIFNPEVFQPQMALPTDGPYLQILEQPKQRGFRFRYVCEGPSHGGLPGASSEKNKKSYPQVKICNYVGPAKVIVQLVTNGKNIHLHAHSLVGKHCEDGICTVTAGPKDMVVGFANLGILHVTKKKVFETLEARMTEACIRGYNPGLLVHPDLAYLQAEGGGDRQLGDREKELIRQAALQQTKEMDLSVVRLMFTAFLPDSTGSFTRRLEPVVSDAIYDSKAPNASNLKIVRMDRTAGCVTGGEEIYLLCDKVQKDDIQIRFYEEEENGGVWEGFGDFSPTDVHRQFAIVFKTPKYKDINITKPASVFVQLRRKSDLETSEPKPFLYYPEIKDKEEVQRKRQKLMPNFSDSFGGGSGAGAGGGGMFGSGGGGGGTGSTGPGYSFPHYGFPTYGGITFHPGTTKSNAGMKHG
UniProt Q04206: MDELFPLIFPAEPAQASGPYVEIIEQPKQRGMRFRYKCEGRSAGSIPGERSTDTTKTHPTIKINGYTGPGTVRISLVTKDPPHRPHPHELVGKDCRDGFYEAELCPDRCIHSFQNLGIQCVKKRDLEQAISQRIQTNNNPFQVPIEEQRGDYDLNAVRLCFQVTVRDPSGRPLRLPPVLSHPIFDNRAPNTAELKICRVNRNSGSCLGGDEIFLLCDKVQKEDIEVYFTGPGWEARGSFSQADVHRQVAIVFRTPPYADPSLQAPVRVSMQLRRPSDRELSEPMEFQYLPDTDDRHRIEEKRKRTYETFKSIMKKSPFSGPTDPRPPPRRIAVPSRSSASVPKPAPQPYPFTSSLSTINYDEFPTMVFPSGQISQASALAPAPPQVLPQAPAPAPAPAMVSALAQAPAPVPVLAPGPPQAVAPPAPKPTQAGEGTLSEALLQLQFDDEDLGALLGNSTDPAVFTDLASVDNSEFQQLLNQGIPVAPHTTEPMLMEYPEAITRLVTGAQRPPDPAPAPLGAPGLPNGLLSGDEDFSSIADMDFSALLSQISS

Legend:
Assay in all cases: co-IP; vector control and Flag-FOXM1A/B/C/D-overexpressing HeLa cells further transfected with HA-p65 or HA-p50 plasmid; anti-Flag or anti-HA antibody; western blot
HA-p50 = HA-p50 (UniProt P19838)
HA-p65 = HA-p65 (UniProt Q04206)
HA-p65, Q04206 = conditions: remark: other sources report otherwise

B1: Flag-FOXM1A (overexpressed in HeLa cells) (protein, UniProt Q08050-3 1-801)
chain: MKTSPRRPLILKRRRLPLPVQNAPSETSEEEPKRSPAQQESNQAEASKEVAESNSCKFPAGIKIINHPTMPNTQVVAIPNNANIHSIITALTAKGKESGSSGPNKFILISCGGAPTQPPGLRPQTQTSYDAKRTEVTLETLGPKPAARDVNLPRPPGALCEQKRETCADGEAAGCTINNSLSNIQWLRKMSSDGLGSRSIKQEMEEKENCHLEQRQVKVEEPSRPSASWQNSVSERPPYSYMAMIQFAINSTERKRMTLKDIYTWIEDHFPYFKHIAKPGWKNSIRHNLSLHDMFVRETSANGKVSFWTIHPSANRYLTLDQVFKPLDPGSPQLPEHLESQQKRPNPELRRNMTIKTELPLGARRKMKPLLPRVSSYLVPIQFPVNQSLVLQPSVKVPLPLAASLMSSELARHSKRVRIAPKVFGEQVVFGYMSKFFSGDLRDFGTPITSLFNFIFLCLSVLLAEEGIAPLSSAGPGKEEKLLFGEGFSPLLPVQTIKEEEIQPGEEMPHLARPIKVESPPLEEWPSPAPSFKEESSHSWEDSSQSPTPRPKKSYSGLRSPTRCVSEMLVIQHRERRERSRSRRKQHLLPPCVDEPELLFSEGPSTSRWAAELPFPADSSDPASQLSYSQEVGGPFKTPIKETLPISSTPSKSVLPRTPESWRLTPPAKVGGLDFSPVQTSQGASDPLPDPLGLMDLSTTPLQSAPPLESPQRLLSSEPLDLISVPFGNSSPSDIDVPKPGSPEPQVSGLAANRSLTEGLVLDTMNDSLSKILLDISFPGLDEDPLGPDNINWSQFIPELQ
HA-p50
  binding: binds weakly
HA-p65
  binding: binds

B2: Flag-FOXM1B (overexpressed in HeLa cells) (protein, UniProt Q08050-2 1-748)
chain: MKTSPRRPLILKRRRLPLPVQNAPSETSEEEPKRSPAQQESNQAEASKEVAESNSCKFPAGIKIINHPTMPNTQVVAIPNNANIHSIITALTAKGKESGSSGPNKFILISCGGAPTQPPGLRPQTQTSYDAKRTEVTLETLGPKPAARDVNLPRPPGALCEQKRETCADGEAAGCTINNSLSNIQWLRKMSSDGLGSRSIKQEMEEKENCHLEQRQVKVEEPSRPSASWQNSVSERPPYSYMAMIQFAINSTERKRMTLKDIYTWIEDHFPYFKHIAKPGWKNSIRHNLSLHDMFVRETSANGKVSFWTIHPSANRYLTLDQVFKQQKRPNPELRRNMTIKTELPLGARRKMKPLLPRVSSYLVPIQFPVNQSLVLQPSVKVPLPLAASLMSSELARHSKRVRIAPKVLLAEEGIAPLSSAGPGKEEKLLFGEGFSPLLPVQTIKEEEIQPGEEMPHLARPIKVESPPLEEWPSPAPSFKEESSHSWEDSSQSPTPRPKKSYSGLRSPTRCVSEMLVIQHRERRERSRSRRKQHLLPPCVDEPELLFSEGPSTSRWAAELPFPADSSDPASQLSYSQEVGGPFKTPIKETLPISSTPSKSVLPRTPESWRLTPPAKVGGLDFSPVQTSQGASDPLPDPLGLMDLSTTPLQSAPPLESPQRLLSSEPLDLISVPFGNSSPSDIDVPKPGSPEPQVSGLAANRSLTEGLVLDTMNDSLSKILLDISFPGLDEDPLGPDNINWSQFIPELQ
HA-p65
  binding: binds

B3: Flag-FOXM1C (overexpressed in HeLa cells), Q08050-1 1-763 (protein)
chain: MKTSPRRPLILKRRRLPLPVQNAPSETSEEEPKRSPAQQESNQAEASKEVAESNSCKFPAGIKIINHPTMPNTQVVAIPNNANIHSIITALTAKGKESGSSGPNKFILISCGGAPTQPPGLRPQTQTSYDAKRTEVTLETLGPKPAARDVNLPRPPGALCEQKRETCADGEAAGCTINNSLSNIQWLRKMSSDGLGSRSIKQEMEEKENCHLEQRQVKVEEPSRPSASWQNSVSERPPYSYMAMIQFAINSTERKRMTLKDIYTWIEDHFPYFKHIAKPGWKNSIRHNLSLHDMFVRETSANGKVSFWTIHPSANRYLTLDQVFKPLDPGSPQLPEHLESQQKRPNPELRRNMTIKTELPLGARRKMKPLLPRVSSYLVPIQFPVNQSLVLQPSVKVPLPLAASLMSSELARHSKRVRIAPKVLLAEEGIAPLSSAGPGKEEKLLFGEGFSPLLPVQTIKEEEIQPGEEMPHLARPIKVESPPLEEWPSPAPSFKEESSHSWEDSSQSPTPRPKKSYSGLRSPTRCVSEMLVIQHRERRERSRSRRKQHLLPPCVDEPELLFSEGPSTSRWAAELPFPADSSDPASQLSYSQEVGGPFKTPIKETLPISSTPSKSVLPRTPESWRLTPPAKVGGLDFSPVQTSQGASDPLPDPLGLMDLSTTPLQSAPPLESPQRLLSSEPLDLISVPFGNSSPSDIDVPKPGSPEPQVSGLAANRSLTEGLVLDTMNDSLSKILLDISFPGLDEDPLGPDNINWSQFIPELQ
HA-p65, Q04206
  binding: binds
